Measurements: PubChem BioAssay AID686971 (National Center for Advancing Translational Sciences (NCATS), 2013)
The whole screen tested about 360,000 compounds, of which about 7,500 (2.1%) were called active. The shares of active, inactive and inconclusive entries below differ from those in the screen. Calls follow the shape of the dose curve; as a rule, active = well fitted cell-killing curve with a large enough effect; inconclusive = small, poorly fitted or top-dose-only effect, or effect the other way, or another doubt; inactive = no such curve, though single readings can be large or run the other way. Potencies of inconclusive entries are left out as doubtful fits.
Potency is read from the fitted curve at half-maximal effect; tags tell the direction and shape of the fitted curve.

Test: qHTS for induction of synthetic lethality in tumor cells producing 2HG: qHTS for the HT-1080-IDH1KD cell line;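 as to activity, negative = toxicity: 0% = DMSO wells and -100% = cell-free medium wells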
Conditions: HT-1080 IDH1 knockdown viability, ATP luminescence, 48 h; activity, negative = toxicity: at 46.1 µM (top of the series) unless noted
How it was run: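 Knockdown cells (IDH1KD HT-1080) received compounds 2 h after plating at 750 cells/well and were kept 48 h at 37 °C in 5% FBS RPMI. A CellTiter-Glo luminescence read gave % activity for curve fitting.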
For `O=C(NC1CCCC1)C(c1ccco1)N(Cc1ccccc1)C(=O)c1csnn1` (stereo not drawn), the “activity, negative = toxicity” value was inactive: -5.17%.
In the case of `O=C(CCCCn1c(=O)c2ccccc2n(Cc2ccc(F)cc2Cl)c1=O)NCc1ccco1`, the Potency is reported as inconclusive [cytotoxic, partial curve, poor fit].
For `CC(=O)c1sc(NC(=O)C=C(C)C)nc1C`, the “activity, negative = toxicity” value was inactive: -11.6%.
With `Cc1cc(SCC(=O)c2ccc(O)c(O)c2)n2nc(C)c(-c3ccccc3)c2n1` the Potency was active: 9.2 µM.
With `CCOC(=O)c1c(-c2ccc(C)o2)csc1NC(=O)CN1CCN(CC)CC1` the Potency was inconclusive [cytotoxic, single point].
In the case of `CCn1c(=O)cc(SCC(=O)N2CCN(Cc3ccc4c(c3)OCO4)CC2)c2ccccc21`, the Potency is reported as inconclusive [cytotoxic, single point].
For `CC(=O)Nc1ccc(Nc2cc(C)nc3c(-c4ccc(Cl)cc4)c(C)nn23)cc1`, the Potency was inconclusive [cytotoxic, single point].
In the case of `O=C(Cc1ccc(-c2ccccc2)cc1)NCc1ccccc1`, the Potency is reported as inconclusive [cytotoxic, full curve].
In the case of `COc1ccc(OC)c(CNc2nc3ccccc3n2CCN2CCCCC2)c1`, the Potency is reported as inconclusive [cytotoxic, single point].
In the case of `COc1cccc(-c2nn(-c3ccccc3)cc2/C=C(\C#N)C(=O)NCCCn2ccnc2)c1`, the Potency is reported as inconclusive [cytotoxic, single point].
For `CCOc1ccc(C(=O)C(C)OC(=O)C2CCN(c3ccc(C(F)(F)F)cn3)CC2)cc1` (stereo not drawn), the “activity, negative = toxicity” value was inactive: -10.6%.
In the case of `CC1CCCCC1NC(=O)COC(=O)c1c2c(nc3ccccc13)/C(=C/c1ccco1)CC2` (stereo not drawn), the “activity, negative = toxicity” value is reported as inactive: -6.3%.
With `CCOc1ccc(C2NC(=O)NC(C)=C2C(=O)OCc2ccccc2)cc1` (stereo not drawn) the Potency was inconclusive [cytotoxic, single point].
In the case of `CC1C(=O)N(Cc2cn(CC3CCCCC3)nn2)CCS(=O)(=O)N1Cc1ccc(-c2ccccc2)cc1` (stereo not drawn), the Potency is reported as inconclusive [cytotoxic, partial curve].
With `COc1ccc(CCN(C(=O)C(F)(F)F)C(C(=O)NC2CCCC2)c2cccs2)cc1` (stereo not drawn) the Potency was inconclusive [cytotoxic, single point].
With `Cc1ccc(C(NC(N)=O)c2ccccc2)cc1` (stereo not drawn) the Potency was inconclusive [cytotoxic, single point].
For `Cn1c(/C=C/c2ccc(Br)cc2)c([N+](=O)[O-])c(=O)n(C)c1=O`, the Potency was active: 13 µM.
With `CC(C)(C)c1ccccc1NC(=O)Nc1nc(C(N)c2ccccc2)cs1` (stereo not drawn) the Potency was inconclusive [cytotoxic, single point].
In the case of `Cc1ccc(S(=O)(=O)C2CCN(c3nc(-c4cccs4)nc4ccccc34)CC2)cc1`, the “activity, negative = toxicity” value is reported as inactive: 19.1%.
For `CCCCCCCCCn1c2c(c(=N)c3c1CCC3)CCCC2`, the Potency was active: 4.61 µM.
For `O=C(Nc1cccc(S(=O)(=O)NCc2ccco2)c1)c1cccc(Cl)c1`, the “activity, negative = toxicity” value was inactive: -0.897%.
With `CCN(CC)CCCN(Cc1cc2cc(OC)ccc2[nH]c1=O)C(=O)Nc1ccc(F)cc1` the Potency was inconclusive [cytotoxic, single point].
In the case of `O=c1cc(N/N=C/c2ccccc2)[nH]c(=O)[nH]1`, the Potency is reported as active: 7.31 µM.
In the case of `CN1CCCC1CCNS(=O)(=O)c1ccc(Br)cc1` (stereo not drawn), the Potency is reported as inconclusive [cytotoxic, single point].
For `COc1cc(/C=C/C(=O)c2ccc3c(c2)OCCO3)cc(OC)c1OC`, the Potency was inconclusive [cytotoxic, single point].
With `COc1cc(CNC23CC4CC(CC(C4)C2)C3)ccc1OCc1ccccc1` the “activity, negative = toxicity” value was inactive: -4.82%.
With `O=C(NC1CCCc2ccccc21)C1CCN(S(=O)(=O)c2ccccc2)CC1` (stereo not drawn) the “activity, negative = toxicity” value was inactive: 10.9%.
With `CCn1nc(C)cc1-c1nnc(SCC(=O)Nc2ccccc2)n1CCCOC` the “activity, negative = toxicity” value was inactive: 9.98%.
In the case of `CC(=O)c1cccc(S(=O)(=O)Nc2ccccc2N2CCOCC2)c1`, the “activity, negative = toxicity” value is reported as inactive: 0.827%.
For `O=C(NCc1ccc2c(c1)OCO2)NC1CCCCC1`, the “activity, negative = toxicity” value was inactive: 13.3%.
For `N#CC1=C(N)Oc2cc(O)c(C=Nc3ccccc3)cc2C1c1ccccc1` (stereo not drawn), the Potency was inconclusive [cytotoxic, single point].
For `CCOc1cc2nc(-c3ccc(OC)c(OC)c3)nc(N3CCOCC3)c2cc1OC`, the Potency was inconclusive [cytotoxic, single point].
For `COc1cccc(C(NC(C)=O)c2ccc3cccnc3c2O)c1` (stereo not drawn), the Potency was inconclusive [cytotoxic, full curve].
For `C=CCN1C=CC(=C/C=C(/C#N)C(=O)OCC)C=C1`, the “activity, negative = toxicity” value was inactive: 4.91%.
In the case of `CN(Cc1ccc(Cl)cc1)C(C(=O)NC1CCCCC1)c1cc2ccccc2o1` (stereo not drawn), the Potency is reported as inconclusive [cytotoxic, single point].
In the case of `COc1ccccc1CCNC(=O)c1nccnc1C(=O)O`, the Potency is reported as inconclusive [rising, single point].
With `CC1=NN(Cc2ccccc2)C(=O)/C1=C\c1ccc(N(C)C)cc1` the “activity, negative = toxicity” value was inactive: -7.78%.
In the case of `CNc1nc(Cl)c(SC)c(NCc2ccc(F)cc2)n1`, the “activity, negative = toxicity” value is reported as inactive: -2.32%.
In the case of `CCOC(=O)c1c(NC(=O)COC(=O)CCOc2ccccc2C)sc(C(=O)NC)c1C`, the “activity, negative = toxicity” value is reported as inactive: -3.09%.
In the case of `CCC(C)Oc1cc(-c2ccnc(Nc3cccc(Cl)c3)n2)ccn1` (stereo not drawn), the Potency is reported as inconclusive [cytotoxic, single point].
For `CN(C)CC/C=C1\c2ccccc2COc2ccccc21`, the Potency was inconclusive [cytotoxic, single point].
For `CCCCn1c(N)c(N(CCC(C)C)C(=O)COC(=O)c2cccnc2Cl)c(=O)[nH]c1=O`, the “activity, negative = toxicity” value was inactive: -0.165%.
With `CN(CC(=O)NCc1ccc(F)cc1)CC(=O)Nc1ccc(Cl)c(C(F)(F)F)c1` the Potency was inconclusive [cytotoxic, single point].
With `O=C1CC(/C=C/c2ccccc2)(C(=O)NC2CCCC2)N1c1ccc(S(=O)(=O)N2CCCC2)cc1` (stereo not drawn) the “activity, negative = toxicity” value was inactive: -6.28%.
In the case of `COc1ccc(S(=O)(=O)N2CCc3ccccc32)cc1C(=O)OCc1c(C)noc1C`, the Potency is reported as inconclusive [cytotoxic, partial curve].
In the case of `C/C(=N\NC(=O)c1cc(-c2cccc(OC(C)C)c2)nc2ccccc12)c1cccnc1`, the Potency is reported as inconclusive [cytotoxic, single point].
For `Cn1c(SCc2cccc(Br)c2)nc2c1c(=O)[nH]c(=O)n2C`, the “activity, negative = toxicity” value was inactive: 2.98%.
For `COC(=O)c1cc(CSc2nc3ccccc3c(=O)n2C)oc1C`, the Potency was inconclusive [cytotoxic, partial curve].
In the case of `CN1CCN(S(=O)(=O)c2ccc(NC(=O)c3ccc(Br)o3)cc2)CC1`, the “activity, negative = toxicity” value is reported as inactive: -2.23%.
For `COc1cc(C2C3=C(CCCC3=O)Nc3ccc4ncccc4c32)ccc1O` (stereo not drawn), the Potency was active: 6.51 µM.
In the case of `O=S(c1cc(Cl)cc(Cl)c1O)c1cc(Cl)cc(Cl)c1O`, the Potency is reported as inconclusive [cytotoxic, single point].
For `Cc1ccc2nc(CCCc3nc4ccc(C)cc4[nH]3)[nH]c2c1`, the Potency was inconclusive [cytotoxic, single point].
With `Cc1ccc(S(=O)(=O)N2CCC(C(=O)Nc3ccccc3N3CCCCC3)CC2)cc1` the “activity, negative = toxicity” value was inactive: 7.13%.
In the case of `Cc1ccc(Cl)cc1N1CCN(C(=O)Cc2cn(C)c3ccccc23)CC1`, the Potency is reported as inconclusive [cytotoxic, single point].
With `COc1ccc2c(c1)C(C)=CC(C)(C)N2C(=O)CSc1nnc(-c2ccc(C)cc2)o1` the Potency was inconclusive [cytotoxic, single point].
In the case of `CCS(=O)(=O)c1ccc2oc(Nc3ccccc3Cl)nc2c1`, the Potency is reported as inconclusive [cytotoxic, partial curve].
For `COc1ccccc1OCCCCN1CCN(C(c2ccccc2)c2ccccc2)CC1`, the Potency was active: 18.4 µM.
With `COc1cccc(C(=O)NCC2(c3ccccc3)CCCC2)c1` the “activity, negative = toxicity” value was inactive: -21.6%.
In the case of `O=C(Cc1cccs1)N1CCCC(c2nc3c(nnn3Cc3ccccc3Cl)c(=O)[nH]2)C1` (stereo not drawn), the Potency is reported as inconclusive [cytotoxic, single point].
For `Cc1[nH]c2ccccc2c1C(=O)C(=O)NCCOc1ccccc1`, the “activity, negative = toxicity” value was inactive: 4.34%.
With `Cc1nn(C(C)(C)C)c(OC(=O)c2ccc3c(c2)OCO3)c1Sc1ccccc1` the Potency was inconclusive [cytotoxic, single point].
In the case of `Cn1c(=O)c([N+](=O)[O-])c(Cl)c2ccccc21`, the Potency is reported as active: 5.8 µM.
In the case of `COc1ccc(OC)c(N(CC(=O)N2CCN(c3cc(Cl)ccc3C)CC2)S(C)(=O)=O)c1`, the Potency is reported as inconclusive [cytotoxic, single point].
In the case of `C=CCSc1cc(C)nc2c(-c3ccccc3)c(C)nn12`, the Potency is reported as inconclusive [cytotoxic, partial curve].
For `CCCOc1ccc(F)cc1-c1cc(C(=O)NCc2cc(C(F)(F)F)cc(C(F)(F)F)c2)[nH]n1`, the Potency was inconclusive [cytotoxic, single point].
For `COc1ccc(OCC(=O)NNC(=O)C2CCN(c3ncnc4sc(C)c(C)c34)CC2)cc1`, the “activity, negative = toxicity” value was inactive: -8.75%.
For `Cc1ccc(NC(=O)C2CC(=O)N(c3ccccc3Cl)C2)cc1S(=O)(=O)N1CCOCC1` (stereo not drawn), the Potency was inconclusive [cytotoxic, full curve, poor fit].
With `CCOc1ccc(NC(=O)CC2C(=O)N(c3ccccc3)C(=O)N2CCc2cccs2)cc1` (stereo not drawn) the “activity, negative = toxicity” value was inactive: -1.01%.
For `c1ccc(-c2cccs2)nc1`, the Potency was inconclusive [rising, partial curve].
In the case of `CCN(CC)CCn1c(=O)n(-c2ccc(Cl)cc2)c(=O)c2c3c(sc21)CN(C)CC3`, the “activity, negative = toxicity” value is reported as inactive: -20.9%.
For `Cc1c(C(=O)NCc2ccc(F)cc2)sc(=O)n1Cc1ccccc1F`, the “activity, negative = toxicity” value was inactive: -25.2%.
For `O=C(Nc1ccc(Cl)cc1)Nc1ccccc1Sc1ncc([N+](=O)[O-])s1`, the Potency was inconclusive [cytotoxic, single point].
In the case of `Cc1ccc(NC(=O)CS(=O)CC(=O)NCCCc2ccccc2)cc1Cl` (stereo not drawn), the Potency is reported as inconclusive [cytotoxic, single point].
